According to the BET-seq Pho4 binding data (Le et al. 2018):
The list shows a part of the results. Values were computed here from the reads of four pooled replicates and scatter widely.

The sequences below were run against T1, Pho4 (S. cerevisiae) (UniProt P07270) (assay: relative binding free energy (BET-seq); higher = weaker binding). Details: reference: library average.
T1 sequence: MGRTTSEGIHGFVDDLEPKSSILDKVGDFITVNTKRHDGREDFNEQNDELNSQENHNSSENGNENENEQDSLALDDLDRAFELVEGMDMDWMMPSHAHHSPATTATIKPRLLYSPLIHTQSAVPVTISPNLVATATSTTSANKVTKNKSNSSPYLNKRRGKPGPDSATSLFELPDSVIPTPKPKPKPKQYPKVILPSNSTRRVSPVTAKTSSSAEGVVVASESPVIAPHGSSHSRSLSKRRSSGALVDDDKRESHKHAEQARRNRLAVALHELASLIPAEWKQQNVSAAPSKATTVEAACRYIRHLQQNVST

| Sequence | relative binding free energy |
| --- | --- |
| GTAGACACGTGGGTCT | -0.586 kJ/mol |
| TGGGTCACGTGTGATA | 0.962 kJ/mol |
| TTATGCACGTGTGCCT | 0.126 kJ/mol |
| ATTTTCACGTGGACGA | 1.13 kJ/mol |
| GGTTACACGTGATTGT | 0.669 kJ/mol |
| GTCATCACGTGTTGGG | 0.879 kJ/mol |
| AGTGGCACGTGATGGT | 0.0837 kJ/mol |
| AGGGTCACGTGCGCTG | -0.586 kJ/mol |
| TGCTTCACGTGGGTGT | 0.126 kJ/mol |
| TACATCACGTGAGGTG | 1.3 kJ/mol |
| CTAGACACGTGTTAGG | 0.335 kJ/mol |
| TGGGTCACGTGGCCTG | -0.0418 kJ/mol |
| AAGTTCACGTGTGGAC | 1.84 kJ/mol |
| TTGGACACGTGGCCGG | -0.544 kJ/mol |
| CAAAGCACGTGGTGGG | -0.711 kJ/mol |
| GTCTTCACGTGTAGTT | 0.962 kJ/mol |
| GCGTACACGTGGGCGT | -0.167 kJ/mol |
| GTATACACGTGGTTGT | -0.0418 kJ/mol |
| TTGGGCACGTGTGTGG | -0.377 kJ/mol |
| GAGTTCACGTGGTCAT | 0.753 kJ/mol |
| GGTAGCACGTGAGAGA | 1.09 kJ/mol |
| TTAAGCACGTGGGGGA | -0.879 kJ/mol |
| TGTTACACGTGAGTAT | 1.13 kJ/mol |

| Sequence | relative binding free energy |
| --- | --- |
| CAAAGCACGTGTGGTT | -0.46 kJ/mol |
| GAAGTCACGTGAGTGT | 1.67 kJ/mol |
| TGAGTCACGTGTAAGT | 0.669 kJ/mol |
| CCTGTCACGTGTGGGG | 0.0418 kJ/mol |
| GAATTCACGTGTTGGT | 1.76 kJ/mol |
| AAAGTCACGTGTATTA | 0.0418 kJ/mol |
| ATAGGCACGTGCTAGT | -0.586 kJ/mol |
| CGTCGCACGTGGGTTT | -1.05 kJ/mol |
| TAGGCCACGTGGTGTA | -1.17 kJ/mol |
| CAAGTCACGTGGTTTG | 0.293 kJ/mol |
| TTTAACACGTGGGCGG | -0.837 kJ/mol |
| GATAGCACGTGATGTA | 0.46 kJ/mol |
| TTAAGCACGTGTACTG | -0.251 kJ/mol |
| GACGGCACGTGTTTAT | 0.502 kJ/mol |
| ATTAGCACGTGGCGGG | -0.669 kJ/mol |
| TTCTGCACGTGGCGCG | 0 kJ/mol |
| TAGTACACGTGTTCGA | 0.962 kJ/mol |
| TAATACACGTGCTTGG | -0.167 kJ/mol |
| TGTGACACGTGTCTTT | 0.0837 kJ/mol |
| AGGGGCACGTGATGTG | -0.0418 kJ/mol |
| TGTTACACGTGCTTGG | 0.167 kJ/mol |
| GTAACCACGTGTGTGG | -0.251 kJ/mol |
| GTATGCACGTGATATA | 0.837 kJ/mol |

| Sequence | relative binding free energy |
| --- | --- |
| TGATACACGTGTTTCT | 0 kJ/mol |
| GTTGACACGTGTGTAG | 0.418 kJ/mol |
| CTGTGCACGTGTGCAT | -0.418 kJ/mol |
| TAAAGCACGTGTGTGA | -0.209 kJ/mol |
| CTAGTCACGTGTTTTG | 0.418 kJ/mol |
| ATTTTCACGTGTAAGT | 1.05 kJ/mol |
| TGAAGCACGTGAGTAG | 0.377 kJ/mol |
| TTGTACACGTGCCAGT | 0.377 kJ/mol |
| TGAATCACGTGTCTTT | 0.586 kJ/mol |
| AATTACACGTGTAGGT | 1.05 kJ/mol |
| GTGGTCACGTGAATGG | 1.26 kJ/mol |
| GGTAGCACGTGTTGAT | -0.126 kJ/mol |
| GATCTCACGTGATGGG | 1.21 kJ/mol |
| ATGATCACGTGGTGCG | 0.502 kJ/mol |
| GGGGACACGTGTCGTC | 0.628 kJ/mol |
| TGTCGCACGTGAATGT | 0.962 kJ/mol |
| TTAGACACGTGTTGAA | 0.335 kJ/mol |
| ACATGCACGTGTTTTG | 0.0418 kJ/mol |
| GCATGCACGTGAGGGG | 0.586 kJ/mol |
| TGTTGCACGTGTCTAG | -0.209 kJ/mol |
| GCGTCCACGTGTGGGT | 0.586 kJ/mol |
| CAGGGCACGTGGGGGC | -1.09 kJ/mol |
| GGCACCACGTGGGGGA | -0.879 kJ/mol |

| Sequence | relative binding free energy |
| --- | --- |
| CGTTTCACGTGGGTGG | 0.753 kJ/mol |
| CTTTTCACGTGGTCTG | 0.209 kJ/mol |
| AAATGCACGTGGGTAA | -0.628 kJ/mol |
| CTGGACACGTGGTTTT | 0.293 kJ/mol |
| ATAAGCACGTGGGGCG | -0.586 kJ/mol |
| GTTTTCACGTGCTTTG | 1.09 kJ/mol |
| AGAGGCACGTGGGAGC | -0.795 kJ/mol |
| AAGAACACGTGGTGTT | -0.502 kJ/mol |
| CTTGGCACGTGGTCGG | -1.42 kJ/mol |
| CTGTGCACGTGGGAGG | -0.711 kJ/mol |
| TTGGCCACGTGTAATG | 0.377 kJ/mol |
| GAAGTCACGTGTCGGG | 0.377 kJ/mol |
| TTTGTCACGTGCATGA | 0.0418 kJ/mol |
| GCCGACACGTGTGGGG | 0.209 kJ/mol |
| ACCTGCACGTGTGGGT | -0.586 kJ/mol |
| TTGATCACGTGAGTCT | 1.46 kJ/mol |
| TGAGTCACGTGGGCGG | 0.293 kJ/mol |
| TTTACCACGTGGTGTT | -0.418 kJ/mol |
| TTAAGCACGTGTGGAA | 0.418 kJ/mol |
| ATCGTCACGTGTGATG | 0.879 kJ/mol |
| AGGTACACGTGTTTGG | 0.167 kJ/mol |
| GATTGCACGTGGATGG | 0.418 kJ/mol |
| GCGTGCACGTGTATAG | -0.0418 kJ/mol |

| Sequence | relative binding free energy |
| --- | --- |
| TTTTGCACGTGGTGCA | -0.711 kJ/mol |
| GAGGTCACGTGGGATG | 0.544 kJ/mol |
| GTAGCCACGTGAGGGT | 0.837 kJ/mol |
| GGTTGCACGTGAAGGG | 1.13 kJ/mol |
| GGGTTCACGTGGATGC | 1.55 kJ/mol |
| ATATTCACGTGTGATA | 1 kJ/mol |
| GATGTCACGTGAGGTC | 1.42 kJ/mol |
| ACATACACGTGTGGGG | 0.251 kJ/mol |
| AATTTCACGTGTACTG | 0.962 kJ/mol |
| CGTTACACGTGATTTT | 0.502 kJ/mol |
| TTAGACACGTGGATTG | -0.167 kJ/mol |
| CGAGTCACGTGGCGGT | -0.167 kJ/mol |
| TAGGACACGTGTGGGG | 0.209 kJ/mol |
| ACGGGCACGTGTGGGT | 0 kJ/mol |
| GTCGTCACGTGGAGAG | 0 kJ/mol |
| AAGTTCACGTGATGTT | 2.05 kJ/mol |
| GGGGGCACGTGATGCG | -0.126 kJ/mol |
| CATTTCACGTGATGTA | 0.251 kJ/mol |
| TAGGCCACGTGGGGTT | -0.795 kJ/mol |
| GATCGCACGTGTTGTG | 0.126 kJ/mol |
| TGTGACACGTGACGGT | 0.0837 kJ/mol |
| AAGGTCACGTGGGCGC | 0.167 kJ/mol |
| AGTAACACGTGGTATG | -0.711 kJ/mol |
